Values marked as one replicate rest on one cluster of the flow cell; about a third of the high ones do not repeat.
These sequences were tested on ATP (assay: switch fluorescence ratio, 500 uM ATP over buffer (Cy3 cluster intensity, sum of 5 cycles each) (fold (ratio)); higher = stronger signal-on switching upon ATP binding; sequences stand for … in TCGTCGGCAGCGTCAGATGTGTATAAGAGACAGTTTTTTTTTTTTTTTTTTTTTTTTT…TC). Conditions: aptamer strand: ATP DNA aptamer (quencher-CACCTGGGGGAGTATTGCGGAGGAAGG + anchor), 100 nM annealed; ATP concentration: 500 uM; one replicate.
In short: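 Clusters with intensities outside 100-1000 RFU were excluded. The remaining Cy3-labelled switching-strand clusters on a modified Illumina MiSeq flow-cell had been annealed to 100 nM quencher-labelled ATP aptamer and imaged in selection buffer, then after 15 min with 500 uM ATP at 22 °C, for five cycles separated by NaOH stripping and re-annealing. The fluorescence ratio, averaged per switch-domain sequence, is each cluster's summed target-cycle Cy3 intensity over its summed buffer-cycle Cy3 intensity.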
Sequence AACGTAAGAG has a switch fluorescence ratio of 1.11.
In the case of AACGTCAAGC, the switch fluorescence ratio is reported as 1.3.
Sequence AACGTCCCGA has a switch fluorescence ratio of 1.02.
For AACGTGAATG, the switch fluorescence ratio was 1.04.
AACGTGATAG gave a switch fluorescence ratio of 1.28.
Work on AACGTGGGTC yielded a switch fluorescence ratio of 0.958.
AACGTGTATG was tested, and the switch fluorescence ratio was 1.01.
Sequence AACGTGTTT has a switch fluorescence ratio of 1.
Sequence AACGTTGTGG has a switch fluorescence ratio of 1.02.
In the case of AACGTTTATG, the switch fluorescence ratio is reported as 0.997.
In the case of AACGTTTCGT, the switch fluorescence ratio is reported as 0.981.
AACGTTTGGG was tested, and the switch fluorescence ratio was 1.02.
With AACGTTTGTC the switch fluorescence ratio was 0.925.
Work on AACTAAACGG yielded a switch fluorescence ratio of 1.16.
For AACTAGGCTG, the switch fluorescence ratio was 1.04.
AACTATGTTT gave a switch fluorescence ratio of 1.01.
Work on AACTCAATTG yielded a switch fluorescence ratio of 0.967.
AACTCCCGTC showed a switch fluorescence ratio of 1.04.
AACTCCTATT was tested, and the switch fluorescence ratio was 1.03.
For AACTCGTGAG, the switch fluorescence ratio was 1.01.
Work on AACTCTGCCG yielded a switch fluorescence ratio of 0.909.
For AACTGAAAAA, the switch fluorescence ratio was 1.07.
AACTGACACA was tested, and the switch fluorescence ratio was 1.16.
Sequence AACTGACTAT has a switch fluorescence ratio of 1.09.
Work on AACTGAGAT yielded a switch fluorescence ratio of 1.04.
With AACTGAGATC the switch fluorescence ratio was 1.03.
AACTGCCCAC showed a switch fluorescence ratio of 1.08.
AACTGGACAA was tested, and the switch fluorescence ratio was 1.07.
AACTGGGAGC showed a switch fluorescence ratio of 1.01.
Sequence AACTGGGTT has a switch fluorescence ratio of 0.95.
With AACTGTGGC the switch fluorescence ratio was 1.02.
With AACTGTGGGC the switch fluorescence ratio was 0.963.
In the case of AACTTACCAT, the switch fluorescence ratio is reported as 1.06.
AACTTAGTG showed a switch fluorescence ratio of 1.
AACTTCGCTG was tested, and the switch fluorescence ratio was 1.14.
AACTTCGTGC showed a switch fluorescence ratio of 0.984.
AACTTGCATA gave a switch fluorescence ratio of 1.07.
In the case of AACTTGGTTG, the switch fluorescence ratio is reported as 1.01.
AAGAAAAACA showed a switch fluorescence ratio of 0.987.
In the case of AAGAAAAACT, the switch fluorescence ratio is reported as 1.43.
With AAGAAAACGT the switch fluorescence ratio was 1.09.
AAGAAAAGTT was tested, and the switch fluorescence ratio was 1.11.
For AAGAAACGTG, the switch fluorescence ratio was 0.992.
AAGAAAGGAC showed a switch fluorescence ratio of 2.66.
Work on AAGAACCGTA yielded a switch fluorescence ratio of 0.94.
AAGAACGCTC gave a switch fluorescence ratio of 1.02.
AAGAAGCGG was tested, and the switch fluorescence ratio was 1.05.
For AAGAAGCTAT, the switch fluorescence ratio was 0.984.
AAGAAGGGGG gave a switch fluorescence ratio of 0.93.
In the case of AAGAATGGGG, the switch fluorescence ratio is reported as 1.03.
With AAGACAGACA the switch fluorescence ratio was 1.06.
For AAGAGAAACG, the switch fluorescence ratio was 1.02.
Sequence AAGAGAGCAG has a switch fluorescence ratio of 0.974.
AAGAGCATGA gave a switch fluorescence ratio of 0.948.
Work on AAGAGCCCGA yielded a switch fluorescence ratio of 0.99.
AAGAGCTTAG was tested, and the switch fluorescence ratio was 1.01.
In the case of AAGAGGAATC, the switch fluorescence ratio is reported as 0.978.
AAGAGTCAAA showed a switch fluorescence ratio of 0.962.
In the case of AAGAGTGCTT, the switch fluorescence ratio is reported as 1.01.
In the case of AAGATAATTG, the switch fluorescence ratio is reported as 1.06.
AAGATACGAC showed a switch fluorescence ratio of 1.59.
For AAGATATTC, the switch fluorescence ratio was 1.
With AAGATGCCCT the switch fluorescence ratio was 1.03.
Work on AAGATGGCTA yielded a switch fluorescence ratio of 1.04.
For AAGATGGTAT, the switch fluorescence ratio was 0.985.
AAGATTATAC gave a switch fluorescence ratio of 1.01.
In the case of AAGCAGAAGG, the switch fluorescence ratio is reported as 0.98.
AAGCAGTTTA was tested, and the switch fluorescence ratio was 0.981.
Work on AAGCCAGCTG yielded a switch fluorescence ratio of 0.923.
For AAGCCGCAAG, the switch fluorescence ratio was 1.81.
With AAGCCGGTCG the switch fluorescence ratio was 1.01.
AAGCCTATGA gave a switch fluorescence ratio of 0.96.
In the case of AAGCCTGGTC, the switch fluorescence ratio is reported as 0.976.
AAGCGACGGG gave a switch fluorescence ratio of 1.01.
For AAGCGCTATT, the switch fluorescence ratio was 0.966.
Work on AAGCGGGCTT yielded a switch fluorescence ratio of 0.989.
Work on AAGCGTCTG yielded a switch fluorescence ratio of 0.936.
Sequence AAGCTAATGG has a switch fluorescence ratio of 1.01.
Sequence AAGCTACGTC has a switch fluorescence ratio of 1.05.
AAGCTAGATA gave a switch fluorescence ratio of 1.03.
AAGCTAGGCG was tested, and the switch fluorescence ratio was 1.03.
AAGCTATCTG gave a switch fluorescence ratio of 0.998.
For AAGCTCTCGT, the switch fluorescence ratio was 0.965.
Work on AAGCTGACAT yielded a switch fluorescence ratio of 1.03.
For AAGCTTAAAT, the switch fluorescence ratio was 0.967.
AAGCTTTGAC gave a switch fluorescence ratio of 1.02.
AAGGAATAG showed a switch fluorescence ratio of 1.12.
With AAGGACATCG the switch fluorescence ratio was 1.07.
Sequence AAGGACCATT has a switch fluorescence ratio of 1.03.
AAGGACCTTG was tested, and the switch fluorescence ratio was 0.991.
Sequence AAGGAGCACG has a switch fluorescence ratio of 1.01.
AAGGAGCG gave a switch fluorescence ratio of 0.974.
For AAGGAGGTGT, the switch fluorescence ratio was 1.02.
For AAGGATAGCG, the switch fluorescence ratio was 1.08.
In the case of AAGGATTTGC, the switch fluorescence ratio is reported as 1.06.
Sequence AAGGCACTAC has a switch fluorescence ratio of 2.13.
AAGGCATGAA was tested, and the switch fluorescence ratio was 0.987.
AAGGCGCAAG was tested, and the switch fluorescence ratio was 1.02.
Sequence AAGGCTACTA has a switch fluorescence ratio of 0.998.
AAGGCTAGCT gave a switch fluorescence ratio of 0.937.
For AAGGCTAGTG, the switch fluorescence ratio was 0.98.
With AAGGCTGGTA the switch fluorescence ratio was 0.987.
Work on AAGGCTTCTC yielded a switch fluorescence ratio of 1.03.
For AAGGGAAGAA, the switch fluorescence ratio was 0.981.
With AAGGGATCAG the switch fluorescence ratio was 0.989.
In the case of AAGGGATTCG, the switch fluorescence ratio is reported as 1.05.
With AAGGGCTCGT the switch fluorescence ratio was 1.01.
Work on AAGGGGCTGG yielded a switch fluorescence ratio of 1.01.
With AAGGGTACG the switch fluorescence ratio was 1.
AAGGGTCCA gave a switch fluorescence ratio of 0.974.
For AAGGGTCGG, the switch fluorescence ratio was 1.03.
Work on AAGGGTGTGG yielded a switch fluorescence ratio of 0.954.
With AAGGGTTG the switch fluorescence ratio was 0.987.
With AAGGTACGAT the switch fluorescence ratio was 1.01.
Sequence AAGGTAGTAC has a switch fluorescence ratio of 1.07.
With AAGGTCGGCT the switch fluorescence ratio was 0.985.
With AAGGTCTCGC the switch fluorescence ratio was 1.02.
Sequence AAGGTGCGG has a switch fluorescence ratio of 0.994.
In the case of AAGGTGGTTA, the switch fluorescence ratio is reported as 1.01.
AAGGTGTTTA was tested, and the switch fluorescence ratio was 1.01.
Work on AAGGTTGACA yielded a switch fluorescence ratio of 0.989.
With AAGGTTGCTT the switch fluorescence ratio was 0.958.
Work on AAGGTTGTGA yielded a switch fluorescence ratio of 0.935.
In the case of AAGTAAACAA, the switch fluorescence ratio is reported as 1.03.
AAGTAATAG gave a switch fluorescence ratio of 1.23.
With AAGTACAAAA the switch fluorescence ratio was 1.14.
AAGTACGTC was tested, and the switch fluorescence ratio was 1.13.
AAGTACTCTG showed a switch fluorescence ratio of 1.13.
For AAGTAGCAAT, the switch fluorescence ratio was 3.11.
AAGTAGTTCT showed a switch fluorescence ratio of 1.
For AAGTATAGAC, the switch fluorescence ratio was 1.03.
AAGTATATAA gave a switch fluorescence ratio of 0.994.
AAGTATGAAC gave a switch fluorescence ratio of 0.98.
AAGTCAATTA was tested, and the switch fluorescence ratio was 1.02.
With AAGTCGATAG the switch fluorescence ratio was 1.01.
Sequence AAGTCGCAGC has a switch fluorescence ratio of 1.03.
AAGTCGGAA gave a switch fluorescence ratio of 0.964.
Sequence AAGTCGGAGG has a switch fluorescence ratio of 0.99.
AAGTCGGGAG was tested, and the switch fluorescence ratio was 1.
In the case of AAGTCTAAAA, the switch fluorescence ratio is reported as 1.07.
With AAGTCTGC the switch fluorescence ratio was 1.01.
With AAGTCTTGAG the switch fluorescence ratio was 0.993.
Sequence AAGTGACCCA has a switch fluorescence ratio of 1.04.
In the case of AAGTGAGTTA, the switch fluorescence ratio is reported as 0.974.
With AAGTGATAAT the switch fluorescence ratio was 1.02.
With AAGTGCCACG the switch fluorescence ratio was 0.996.
For AAGTGGCGGC, the switch fluorescence ratio was 0.993.
AAGTGTAAAG gave a switch fluorescence ratio of 1.
Sequence AAGTGTAGAT has a switch fluorescence ratio of 1.06.
For AAGTGTTTAA, the switch fluorescence ratio was 0.954.
In the case of AAGTTAAATT, the switch fluorescence ratio is reported as 0.994.
With AAGTTACGCC the switch fluorescence ratio was 1.04.
With AAGTTAGTCC the switch fluorescence ratio was 1.06.
AAGTTCAGCA was tested, and the switch fluorescence ratio was 1.03.
Work on AAGTTGGAC yielded a switch fluorescence ratio of 1.02.
In the case of AAGTTGGCGG, the switch fluorescence ratio is reported as 1.01.
With AAGTTTCACA the switch fluorescence ratio was 1.06.
In the case of AAGTTTCGTG, the switch fluorescence ratio is reported as 1.03.
AAGTTTCTGA showed a switch fluorescence ratio of 0.984.
Sequence AAGTTTTCTT has a switch fluorescence ratio of 0.988.
With AATAAACTGA the switch fluorescence ratio was 1.03.
Sequence AATAAAGGTG has a switch fluorescence ratio of 1.24.
For AATAACGAGT, the switch fluorescence ratio was 0.988.
AATAAGATT was tested, and the switch fluorescence ratio was 1.
With AATAAGCAGG the switch fluorescence ratio was 1.01.
In the case of AATAAGCTGA, the switch fluorescence ratio is reported as 0.988.
AATAAGGCTT showed a switch fluorescence ratio of 0.953.
AATAATACTT was tested, and the switch fluorescence ratio was 1.03.
With AATAATATCC the switch fluorescence ratio was 1.02.
In the case of AATACGACAT, the switch fluorescence ratio is reported as 1.21.
Work on AATACGATGT yielded a switch fluorescence ratio of 1.
For AATACGGAGT, the switch fluorescence ratio was 1.02.
AATACTTTCA showed a switch fluorescence ratio of 1.05.
In the case of AATAGACAGG, the switch fluorescence ratio is reported as 1.05.
Work on AATAGCACCC yielded a switch fluorescence ratio of 1.08.
For AATAGCCCTT, the switch fluorescence ratio was 0.994.
AATAGCGAG was tested, and the switch fluorescence ratio was 1.01.
AATAGGAAAA was tested, and the switch fluorescence ratio was 0.99.
For AATAGGCCAC, the switch fluorescence ratio was 1.03.
AATAGTCATA gave a switch fluorescence ratio of 1.
Work on AATAGTTAGC yielded a switch fluorescence ratio of 0.97.
For AATATATTTG, the switch fluorescence ratio was 0.97.
Work on AATATCACCT yielded a switch fluorescence ratio of 1.21.
Work on AATATCATTA yielded a switch fluorescence ratio of 1.01.
AATATCGAA showed a switch fluorescence ratio of 0.934.
In the case of AATATCTGGT, the switch fluorescence ratio is reported as 0.934.
Sequence AATATGAAGA has a switch fluorescence ratio of 1.03.
Work on AATATGAGAG yielded a switch fluorescence ratio of 1.
In the case of AATATGCACA, the switch fluorescence ratio is reported as 1.01.
AATATGGTGG was tested, and the switch fluorescence ratio was 0.985.
AATATGTAGG showed a switch fluorescence ratio of 1.05.
AATCACCCCG showed a switch fluorescence ratio of 1.1.
AATCATTCAT was tested, and the switch fluorescence ratio was 1.
With AATCCAAAGT the switch fluorescence ratio was 0.996.
AATCCGCCAC gave a switch fluorescence ratio of 2.2.
In the case of AATCCGGTGT, the switch fluorescence ratio is reported as 1.09.
Sequence AATCCTACTT has a switch fluorescence ratio of 1.
For AATCCTTGCT, the switch fluorescence ratio was 1.22.
For AATCGAGGG, the switch fluorescence ratio was 1.02.
AATCGCAAAA gave a switch fluorescence ratio of 1.08.
AATCGCTCGT gave a switch fluorescence ratio of 1.

— the supplement of paper PMC10126150
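Note: ATP exposure 15 min at 22 °C before imaging.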
